Scores whose standard error is large were omitted. Two further conditions of the source, in which the scores hardly spread, are not listed. In variant names, del marks residues removed and ins residues inserted between the two positions. For some assays here: The concentration of ogerin is not given here.
B1: GPR68, Q15743 (parent)
chain: MGNITADNSSMSCTIDHTIHQTLAPVVYVTVLVVGFPANCLSLYFGYLQIKARNELGVYLCNLTVADLFYICSLPFWLQYVLQHDNWSHGDLSCQVCGILLYENIYISVGFLCCISVDRYLAVAHPFRFHQFRTLKAAVGVSVVIWAKELLTSIYFLMHEEVIEDENQHRVCFEHYPIQAWQRAINYYRFLVGFLFPICLLLASYQGILRAVRRSHGTQKSRKDQIQRLVLSTVVIFLACFLPYHVLLLVRSVWEASCDFAKGVFNAYHFSLLLTSFNCVADPVLYCFVSETTHRDLARLRGACLAFLTCSRTGRAREAYPLGAPEASGKSGAQGEEPELLTKLHPAFQTPNSPGSGGFPTGRLA

Experiments:
[1] = variants of: B1; experiment: cAMP reporter score (Enrich2 score, wild type = 0); higher = more signal; HEK293T, FACS bins
[2] = variants of: B1; experiment: surface expression score (Enrich2 score, wild type = 0); higher = more signal; HEK293T, FACS bins

Variant | cAMP reporter score ([1]; pH 5.5) | cAMP reporter score ([1]; pH 6) | cAMP reporter score ([1]; pH 6, modulator: ogerin) | cAMP reporter score ([1]; pH 6.5, modulator: ogerin) | surface expression score [2]
D85_W87del | -0.671 | 0.189 | -1.27 | -1.08 | -0.983
N86_W87insG | -1.03 | -1.14 | -1.54 | -1.15 | 0.64
N86_W87insGS | -0.935 | – | 0.053 | -1.6 | 1.54
N86del | 0.074 | -0.3 | 0.2 | -0.155 | 0.837
W87_S88del | -1.32 | -1.65 | -1.79 | -1.23 | -0.483
W87_S88insGSG | -1.75 | -1.02 | -1.18 | -0.786 | -0.164
W87del | -0.868 | -0.98 | -1.12 | -1.42 | -0.283
MGNITADNSSMSCTIDHTIHQTLAPVVYVTVLVVGFPANCLSLYFGYLQIKARNELGVYLCNLTVADLFYICSLPFWLQYVLQHDNWAHGDLSCQVCGILLYENIYISVGFLCCISVDRYLAVAHPFRFHQFRTLKAAVGVSVVIWAKELLTSIYFLMHEEVIEDENQHRVCFEHYPIQAWQRAINYYRFLVGFLFPICLLLASYQGILRAVRRSHGTQKSRKDQIQRLVLSTVVIFLACFLPYHVLLLVRSVWEASCDFAKGVFNAYHFSLLLTSFNCVADPVLYCFVSETTHRDLARLRGACLAFLTCSRTGRAREAYPLGAPEASGKSGAQGEEPELLTKLHPAFQTPNSPGSGGFPTGRLA [S88A] | 0.419 | -0.062 | 0.138 | 0.139 | 1.13
MGNITADNSSMSCTIDHTIHQTLAPVVYVTVLVVGFPANCLSLYFGYLQIKARNELGVYLCNLTVADLFYICSLPFWLQYVLQHDNWCHGDLSCQVCGILLYENIYISVGFLCCISVDRYLAVAHPFRFHQFRTLKAAVGVSVVIWAKELLTSIYFLMHEEVIEDENQHRVCFEHYPIQAWQRAINYYRFLVGFLFPICLLLASYQGILRAVRRSHGTQKSRKDQIQRLVLSTVVIFLACFLPYHVLLLVRSVWEASCDFAKGVFNAYHFSLLLTSFNCVADPVLYCFVSETTHRDLARLRGACLAFLTCSRTGRAREAYPLGAPEASGKSGAQGEEPELLTKLHPAFQTPNSPGSGGFPTGRLA [S88C] | -0.717 | -0.686 | -0.734 | -0.274 | -1.08
MGNITADNSSMSCTIDHTIHQTLAPVVYVTVLVVGFPANCLSLYFGYLQIKARNELGVYLCNLTVADLFYICSLPFWLQYVLQHDNWDHGDLSCQVCGILLYENIYISVGFLCCISVDRYLAVAHPFRFHQFRTLKAAVGVSVVIWAKELLTSIYFLMHEEVIEDENQHRVCFEHYPIQAWQRAINYYRFLVGFLFPICLLLASYQGILRAVRRSHGTQKSRKDQIQRLVLSTVVIFLACFLPYHVLLLVRSVWEASCDFAKGVFNAYHFSLLLTSFNCVADPVLYCFVSETTHRDLARLRGACLAFLTCSRTGRAREAYPLGAPEASGKSGAQGEEPELLTKLHPAFQTPNSPGSGGFPTGRLA [S88D] | -0.374 | – | -1.3 | -0.609 | 0.78
MGNITADNSSMSCTIDHTIHQTLAPVVYVTVLVVGFPANCLSLYFGYLQIKARNELGVYLCNLTVADLFYICSLPFWLQYVLQHDNWEHGDLSCQVCGILLYENIYISVGFLCCISVDRYLAVAHPFRFHQFRTLKAAVGVSVVIWAKELLTSIYFLMHEEVIEDENQHRVCFEHYPIQAWQRAINYYRFLVGFLFPICLLLASYQGILRAVRRSHGTQKSRKDQIQRLVLSTVVIFLACFLPYHVLLLVRSVWEASCDFAKGVFNAYHFSLLLTSFNCVADPVLYCFVSETTHRDLARLRGACLAFLTCSRTGRAREAYPLGAPEASGKSGAQGEEPELLTKLHPAFQTPNSPGSGGFPTGRLA [S88E] | 0.514 | -0.691 | 0.684 | -0.388 | 1.04
